Results: publication PMC10185812
Results are given in words; binding and its absence hold for the method and conditions named. Binding seen in cells or lysates may run through a third protein. Some binding calls cover weakened binding; strength is not graded here. Sequences can lack the tags named with a protein.

Key:
Assay in all cases: co-IP; ARPE-19 transiently co-transfected with tagged C21ORF2 (GFP or 3xHA) and 3xFLAG-NEK1 (full length, truncated or mutated); immunoprecipitation with anti-FLAG antibodies; washes with 500 mM NaCl, 1% Triton X-100; immunoblotting
[1] = target: T1, 3xFLAG-NEK1 1-379 (human) (UniProt Q96PY6)
T1 sequence: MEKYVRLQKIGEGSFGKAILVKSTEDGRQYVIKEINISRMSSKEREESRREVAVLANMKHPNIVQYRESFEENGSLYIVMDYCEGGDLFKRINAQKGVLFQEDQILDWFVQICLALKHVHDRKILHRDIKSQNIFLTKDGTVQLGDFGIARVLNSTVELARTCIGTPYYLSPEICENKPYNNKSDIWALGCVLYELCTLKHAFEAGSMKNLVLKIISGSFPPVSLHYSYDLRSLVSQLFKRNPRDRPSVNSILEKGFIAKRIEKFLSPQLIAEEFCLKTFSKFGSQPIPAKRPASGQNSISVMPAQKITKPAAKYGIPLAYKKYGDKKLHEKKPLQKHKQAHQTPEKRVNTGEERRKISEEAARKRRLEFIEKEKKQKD

[2] = target: T2, 3xFLAG-NEK1 760-1,286 (human) (UniProt Q96PY6)
T2 sequence: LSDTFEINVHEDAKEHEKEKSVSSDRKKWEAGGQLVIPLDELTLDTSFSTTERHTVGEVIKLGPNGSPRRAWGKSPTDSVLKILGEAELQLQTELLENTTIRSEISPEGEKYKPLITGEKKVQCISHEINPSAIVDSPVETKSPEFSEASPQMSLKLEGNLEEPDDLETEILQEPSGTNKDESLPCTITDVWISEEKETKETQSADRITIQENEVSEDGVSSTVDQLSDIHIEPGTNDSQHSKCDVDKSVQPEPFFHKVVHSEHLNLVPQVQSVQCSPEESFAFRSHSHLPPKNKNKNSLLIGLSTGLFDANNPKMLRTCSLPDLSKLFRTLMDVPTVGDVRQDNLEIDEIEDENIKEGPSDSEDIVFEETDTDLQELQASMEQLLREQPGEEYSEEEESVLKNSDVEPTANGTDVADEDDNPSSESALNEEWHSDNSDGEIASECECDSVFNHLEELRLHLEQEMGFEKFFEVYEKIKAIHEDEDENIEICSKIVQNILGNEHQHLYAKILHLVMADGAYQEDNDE

[3] = target: T3, 3xFLAG-NEK1 1-1,160 (human) (UniProt Q96PY6)
T3 sequence: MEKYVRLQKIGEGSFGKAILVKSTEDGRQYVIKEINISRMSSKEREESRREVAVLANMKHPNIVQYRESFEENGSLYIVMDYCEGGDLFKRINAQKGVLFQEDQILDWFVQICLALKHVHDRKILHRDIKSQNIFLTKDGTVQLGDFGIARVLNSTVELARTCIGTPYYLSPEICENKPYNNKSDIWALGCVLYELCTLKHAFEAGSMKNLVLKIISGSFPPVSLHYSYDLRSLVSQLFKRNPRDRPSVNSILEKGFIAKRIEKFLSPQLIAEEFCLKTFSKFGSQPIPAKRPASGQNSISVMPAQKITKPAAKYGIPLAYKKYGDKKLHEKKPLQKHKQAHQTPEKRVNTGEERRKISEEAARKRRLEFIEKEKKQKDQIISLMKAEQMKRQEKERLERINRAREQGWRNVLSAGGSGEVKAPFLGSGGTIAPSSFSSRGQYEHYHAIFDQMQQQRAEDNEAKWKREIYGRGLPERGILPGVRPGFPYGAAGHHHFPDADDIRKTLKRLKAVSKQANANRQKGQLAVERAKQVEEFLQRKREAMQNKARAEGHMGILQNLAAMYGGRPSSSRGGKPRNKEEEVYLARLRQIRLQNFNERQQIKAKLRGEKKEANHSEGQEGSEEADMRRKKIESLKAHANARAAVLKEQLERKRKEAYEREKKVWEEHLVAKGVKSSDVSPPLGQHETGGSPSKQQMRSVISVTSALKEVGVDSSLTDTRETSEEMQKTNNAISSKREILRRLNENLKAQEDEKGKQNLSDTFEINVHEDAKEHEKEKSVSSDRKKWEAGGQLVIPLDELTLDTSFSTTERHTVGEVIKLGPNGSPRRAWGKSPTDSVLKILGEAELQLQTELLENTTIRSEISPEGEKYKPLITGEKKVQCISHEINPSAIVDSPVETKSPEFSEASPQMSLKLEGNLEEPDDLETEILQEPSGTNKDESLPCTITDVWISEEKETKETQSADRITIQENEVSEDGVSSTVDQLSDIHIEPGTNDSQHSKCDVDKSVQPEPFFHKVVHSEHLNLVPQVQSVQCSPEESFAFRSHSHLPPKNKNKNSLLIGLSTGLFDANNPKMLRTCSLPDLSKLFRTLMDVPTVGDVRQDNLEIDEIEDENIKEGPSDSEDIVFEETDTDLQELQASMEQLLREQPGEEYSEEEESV

B1: GFP-C21ORF2 (protein, UniProt O43822-1 1-256)
chain: MKLTRKMVLTRAKASELHSVRKLNCWGSRLTDISICQEMPSLEVITLSVNSISTLEPVSRCQRLSELYLRRNRIPSLAELFYLKGLPRLRVLWLAENPCCGTSPHRYRMTVLRTLPRLQKLDNQAVTEEELSRALSEGEEITAAPEREGTGHGGPKLCCTLSSLSSAAETGRDPLDSEEEATSGAQDERGLKPPSRGQFPSLSARDASSSHRGRNVLTAILLLLRELDAEGLEAVQQTVGSRLQALRGEEVQEHAE
For B1, which binding [1] is on record?
Its binding is “no binding”.

And the binding [2]?
The binding was “binds”.

And the binding [3]?
The binding was “no binding”.
